# Hit rate of the full screen: of about 44,000 compounds, about 340 (0.77%) were called active. Inconclusive results (about 5%) are left out. The call rests on the fitted dose curve; in most records, active means well fitted inhibition curve with a large enough effect; inconclusive means small, poorly fitted or top-dose-only effect; inactive means flat fitted curve, though single readings scatter. The list shows a part of the results.
# Assay: Acumen qHTS Assay for Inhibitors of the mTORC1 Signaling Pathway in MEF (Tsc2-/-, p53-/-) Cells: Sytravon;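 further: plate controls were DMSO for no effect and rapamycin for full effect; nearly all actives have a fitted effect of over 50% in size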
# Details: phospho-rpS6 immunofluorescence/PI, 24 h; series mostly up to 38.3 µM; activity change, negative = inhibition: at the top concentration
# Method in brief: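 Readout is phospho-S6 Alexa 488 signal normalized to PI per well, reported as % active cells with thresholds set from rapamycin (7.5 nM) and DMSO controls. Cells: Tsc2-/-, p53-/- MEFs, 24 hrs compound at 37 C; PI cell number serves as viability.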
row,SMILES,"activity change, negative = inhibition"
1,COc1ccc(OC)c(NC(=O)Cn2ccn(-c3ccc(OC)c(OC)c3)c(=O)c2=O)c1,inactive: 7.14%
2,CCc1ccc(NC(=O)Nc2ccccc2OCc2cc(=O)n3ccccc3n2)cc1,inactive: 3.08%
3,CCOC(=O)c1c(NC(=O)CCCOc2ccc(Cl)cc2)sc2c1CCC2,inactive: 11.8%
4,COc1ccc(OC)c(-c2noc(N3CCN(c4ccc(C(C)=O)cc4)CC3)n2)c1,inactive: -5.25%
5,COc1ccc(CNC(=O)c2ccc(NC(=O)N3CCSc4ncccc43)cc2)cc1OC,inactive: 1.8%
6,COc1ccc(-c2oc3ncn4nc(COc5ccc(C)cc5)nc4c3c2-c2ccc(OC)cc2)cc1,inactive: 8.25%
7,O=C(NCCc1csc2nc(-c3ccccc3F)nn12)c1ccccc1C(F)(F)F,inactive: 6.56%
8,COc1cccc(CN(C(=O)c2ccc(C(C)(C)C)cc2)C2CCS(=O)(=O)C2)c1 (stereo not given),inactive: 2.78%
9,CCOC(=O)Cn1c(=O)oc2cc(S(=O)(=O)N3CCN(c4ccccc4OC)CC3)ccc21,inactive: -9.49%
10,CCCOc1ccc(C(=O)Nc2ccc3nn(-c4ccc(OC)c(Cl)c4)nc3c2)cc1,inactive: -0.0888%
11,Cc1ccccc1NC(=O)c1c(C)oc2ccc(O)c(CN3CCC(C)CC3)c12,inactive: -0.817%
12,CCOc1ccc(-c2nnc(SCC(=O)Nc3cc(F)ccc3F)o2)cc1,inactive: -7.42%
13,COc1cccc2c1Oc1nc(-c3ccccc3)nc(SCC(=O)Nc3ccccc3)c1C2,inactive: -0.357%
14,COc1ccc(NC(=O)c2cnn(-c3ccc(F)cc3F)c2C2CCN(C(=O)OC(C)(C)C)CC2)cc1Cl,inactive: -3.93%
15,COc1ccc(CCNC(=O)c2ccc3nc(Cc4ccccc4)oc3c2)cc1OC,inactive: 0.983%
16,Nc1nonc1-c1nc2ccccc2n1Cc1c(Cl)cccc1Cl,inactive: 2.34%
17,COc1ccc(N(CC(=O)NCCc2ccccc2)S(=O)(=O)c2ccc(OC)c(OC)c2)cc1,inactive: 5.94%
18,Cc1ccc(NC(=O)/C(C#N)=C/c2cc(C)n(-c3ccc(Br)cc3)c2C)cc1C,inactive: 3.24%
19,CCOc1ccccc1NC(=O)n1ncc2cc(Cl)ccc21,inactive: 0.626%
20,Cc1ccc(CCNC(=O)c2ccc(CS(=O)(=O)c3ccc(Cl)cc3)o2)cc1,inactive: 0.123%
21,COCCNC(=O)CCCN1C(=O)CCn2nc(-c3cccn3C)cc21,inactive: -3.12%
22,COc1ccc(CCn2c(=O)[nH]c3cc(C(=O)N4CCN(c5ccccc5)CC4)ccc3c2=O)cc1OC,inactive: 6.23%
23,Cc1cc(O)c(C(c2ccc(Cl)cc2)N2CCN(c3ccccc3)CC2)c(=O)n1Cc1ccco1 (stereo not given),inactive: -22.4%
24,CCN1C(=O)C2(c3ccccc31)c1c(oc3ccc(C)cc3c1=O)C(=O)N2CCCOC(C)C (stereo not given),inactive: 3.82%

row,SMILES,"activity change, negative = inhibition"
1,CC1=C(c2ccc(C)cc2)S(=O)(=O)N(Cc2ccc(C(=O)Nc3ccccc3C)cc2)C1=O,inactive: -2.9%
2,COc1ccc(NC(=O)Cn2c(=O)oc3cc(S(=O)(=O)N4CCCCC4C)ccc32)cc1 (stereo not given),inactive: -10.8%
3,Cc1oc(-c2ccc(C(=O)NC(C)c3ccccc3)cc2)nc1CS(=O)(=O)c1ccccc1 (stereo not given),inactive: 0%
4,O=C(c1ccccc1F)N1CCC(c2nc3c(nnn3Cc3cccc(F)c3)c(=O)[nH]2)CC1,inactive: 1.18%
5,COC(=O)c1ccccc1NC(=O)CCCN1C(=O)C(c2ccccc2)Oc2cccnc21 (stereo not given),inactive: 0.687%
6,CC(=O)Nc1ccc(NS(=O)(=O)c2cc(Br)cc3c2N(C(=O)C2CC2)CC3)cc1,inactive: -11%
7,COc1cc(OC)c(NC(=O)c2cc(C(C)=O)n3ccccc23)cc1Cl,inactive: 8.93%
8,COc1ccc(OCC(=O)N(Cc2cccc(OC)c2)C2CCS(=O)(=O)C2)cc1 (stereo not given),inactive: -9.03%
9,Cc1ccc(Nc2ncnc3c2cnn3-c2ccc(C)cc2)cc1,inactive: -0.805%
10,COc1ccc(C)cc1NS(=O)(=O)c1c(C)nc2sc(C)cn2c1=O,inactive: -6.59%
11,CCOc1ccccc1NC(=O)CSc1ccc2nnc(CCNS(=O)(=O)c3ccccc3)n2n1,inactive: -3.73%
12,Brc1ccc(-c2noc(-c3ccccc3)n2)o1,inactive: -9.89%
13,COCCNC(=O)CCCn1c(=O)[nH]c2ccsc2c1=O,inactive: -5.04%
14,Cc1ccc(Cl)cc1N(C)C(=O)c1noc2c1CCCCC2,inactive: 4.64%
15,COc1ccc(NC(=O)c2sc3nc(C)c(C(=O)Nc4ccc(C)cc4C)c(-c4ccccc4Cl)c3c2N)cc1,inactive: 1.9%
16,Cc1nn(Cc2noc(C(=O)NCc3cccc(F)c3)n2)c(C)c1Br,inactive: 3.2%
17,COc1ccc(-n2cc(C(=O)N(C)c3cc(C)ccc3OC)c3ccccc3c2=O)cc1,inactive: -4.68%
18,CSCCC(NS(=O)(=O)c1ccc2c(c1)oc(=O)n2C)C(=O)NCc1ccc(F)cc1 (stereo not given),inactive: -0.402%
19,COc1ccccc1NC(=O)C1=C(C)Nc2nc(SCC(=O)c3ccc(C)cc3)nn2C1c1ccccc1C (stereo not given),inactive: -0.602%
20,CCOc1ccc(NS(=O)(=O)c2ccc3[nH]cc(C(=O)NCCOC)c(=O)c3c2)cc1,inactive: -4.89%
21,CN(C)CCNC(=O)CCCn1c(=O)c2cccn2c2ccccc21,inactive: 4.18%
22,CC1=C(C(=O)Nc2cccnc2)C(c2ccccc2)n2nc(SCc3ccccc3)nc2N1 (stereo not given),inactive: -0.593%
23,Cc1ccc(C)c(NC(=O)CN2C(=O)C3(SCC(=O)N3c3ccc(C)c(C)c3)c3ccccc32)c1 (stereo not given),inactive: -1.29%
24,O=C(Cn1nc(-c2ccccc2)c2cnc3ccccc3c21)Nc1ccccc1,inactive: -1.1%

row,SMILES,"activity change, negative = inhibition"
1,CCC(=O)N1CCc2cc(CNS(=O)(=O)c3c(C)cc(C)cc3C)ccc21,inactive: 0%
2,Cc1ccc(Cn2nnc3sc4c(c3c2=O)CCC(C)C4)cc1 (stereo not given),inactive: -0.0882%
3,CC1CCc2nc3ncn(Cc4ccc(Cl)cc4)c(=O)c3cc2C1 (stereo not given),inactive: -0.178%
4,Cc1ccc2nc(-c3ccc(Cl)c(NC(=O)c4ccc5c(c4)OCCO5)c3)oc2c1,inactive: -0.557%
5,Cc1nnc(NCc2ccc(Cl)cc2)c2c1nnn2Cc1ccc(F)cc1,inactive: -1.95%
6,CCCCOc1ccc(C(=O)Nc2ccc(S(=O)(=O)Nc3nc(C)cc(C)n3)cc2)cc1,inactive: 14.1%
7,COC(=O)c1ccccc1NC(=O)c1cc(-c2ccc(Cl)cc2)on1,inactive: 7.02%
8,Cc1nc2ccccc2n1CCc1nc2c3ccccc3nc(SCC(=O)Nc3cccc(C(F)(F)F)c3)n2n1,inactive: -2.21%
9,CCc1ccc2ncc(S(=O)(=O)c3ccc(Cl)cc3)c(N3CCN(CC)CC3)c2c1,inactive: -5.11%
10,Cc1cc(C)nc(NS(=O)(=O)c2ccc(NC(=O)c3ccccc3O)cc2)n1,inactive: 0.532%
11,CCCCOc1ccc(C(=O)N2CC(=O)Nc3ccc(Br)cc3C2c2ccc(F)cc2)cc1 (stereo not given),inactive: -28.2%
12,COc1ccc(Br)cc1Cn1nnc(C(=O)Nc2ccc(C)cc2C)c1N,inactive: -18.8%
13,COc1ccc2c(Sc3ccccc3)c(C(=O)NCC(C)c3ccccc3)[nH]c2c1 (stereo not given),inactive: -0.126%
14,Cc1cc(C)cc(-n2c(SCC(=O)N3CCCC3)nc3c([nH]c4ccccc43)c2=O)c1,inactive: 0.576%
15,Cn1c(=O)n(-c2ccc3c(c2)OCO3)c2nc(-c3ccc(Cl)cc3)nc(C(N)=O)c21,inactive: -2.37%
16,O=C(CCC1N=C2c3ccccc3N=C(SCc3ccccc3Cl)N2C1=O)NCCc1ccccc1 (stereo not given),inactive: 0%
17,Cc1ccccc1NC(=O)CSc1nc(-c2ccc(F)cc2)nc2c1Cc1ccccc1O2,inactive: -10.2%
18,COc1ccc(NC(=O)C2CCN(S(=O)(=O)c3ccc4[nH]c(=O)ccc4c3)CC2)cc1Cl,inactive: 0.209%
19,COc1cc(OC)c(NC(=O)C(c2ccccc2)N2Cc3ccccc3C2=O)cc1Cl (stereo not given),inactive: 2.88%
20,CCS(=O)(=O)N1CC(=O)N(c2ccc(Cl)cc2C)C(C)(C(=O)NC2CCCCCC2)C1 (stereo not given),inactive: -6.24%
21,CCc1nnc(SCc2cccc(F)c2)c2cc3sc(C)cc3n12,inactive: -8.39%
22,CCOc1ccc(N2CC(c3nc4ccccc4n3CCCOc3ccccc3OC)CC2=O)cc1 (stereo not given),inactive: -4.18%
23,CC(C)CN(CCCNC(=O)c1cc(-c2ccc(Br)s2)nc2ccccc12)CC(C)C,inactive: -2.74%
24,CCOC(=O)c1scc(-c2ccccc2)c1S(=O)(=O)Nc1ccc(N(C)C)cc1,inactive: -7.59%

row,SMILES,"activity change, negative = inhibition"
1,COc1ccc(CCNC(=O)C2(c3cccs3)CCOCC2)cc1,inactive: -9.13%
2,O=C(Nc1nonc1-c1ccc(Cl)cc1)c1ccccc1F,inactive: -1.18%
3,COc1ccc(N2CC(NC(=O)/C=C\c3ccc4c(c3)OCO4)CC2=O)cc1 (stereo not given),inactive: -3.17%
4,Cc1nnc(SCc2cc(=O)n3cccc(C)c3n2)s1,inactive: 8.53%
5,Cc1nn2c(C)c(C(=O)N3CCN(c4ccccc4F)CC3)cnc2c1-c1ccc(F)cc1,inactive: -13.3%
6,COCCCNC(=O)c1ccc(Cn2c(=O)c3ccccc3n(CC(=O)Nc3c(C)cccc3C)c2=O)cc1,inactive: -6.73%
7,CCCCCCNc1nc2c(c(=O)n(C)c(=O)n2C)n1Cc1cccc(C)c1,inactive: 0.0694%
8,CCOc1cc(C(=O)Nc2ccc3nc(Nc4cccc(Cl)c4)cc(C)c3c2)cc(OCC)c1OCC,inactive: -6.52%
9,Cc1cccc(CCNC(=O)C2CCC(CNS(=O)(=O)c3ccccc3)CC2)c1 (stereo not given),inactive: -0.986%
10,COc1cccc(-c2nc(CS(=O)(=O)CC(=O)NCCc3ccc(OC)cc3OC)c(C)o2)c1,inactive: -5.11%
11,CCCC(CCC)C(=O)Nc1cccc(-c2nc3cccnc3s2)c1C,inactive: -17.1%
12,O=C(Nc1ccc(F)c(Cl)c1)C1CCN(C(=O)c2ccc(F)cc2)CC1,inactive: -16.4%
13,O=C(NCc1ccccc1Cl)C1CCN(S(=O)(=O)Cc2ccccc2)CC1,inactive: -9.96%
14,CCOC(=O)c1ccc(NC(=O)c2cnn(-c3ccc(C)cc3C)c2C2CCN(C(=O)OC(C)(C)C)CC2)cc1,inactive: -14.5%
15,COc1ccc(Cl)cc1NC(=O)CSC1=Nc2ccccc2C2=NC(CCC(=O)NCc3ccc(F)cc3)C(=O)N12 (stereo not given),inactive: 2.4%
16,Cc1nc2ccn(Cc3ccco3)c(=O)c2cc1C(=O)NCc1ccccc1F,inactive: 2.98%
17,CCSc1ncc(Cl)c(C(=O)Nc2nnc(CC)s2)n1,inactive: 3.43%
18,O=C(c1ccccc1F)N1c2ncnn2C2(CCCCC2)[C@@H]2CCCC[C@@H]21,inactive: 0%
19,Cc1cccc(Nc2nc(N)nc(N)c2S(=O)(=O)c2ccccc2)c1,inactive: 7.83%
20,Cc1cccc(NC(=O)CSc2ncc(-c3ccccc3)[nH]2)c1C,inactive: 5.6%
21,COc1ccc(C2=C(C)C(N3CCC(C(=O)Nc4ccccc4F)CC3)=NS2(=O)=O)cc1,inactive: 0.402%
22,Cc1c(C)n(Cc2ccc(F)cc2)c2ccc(C(=O)N3CCN(c4ccc(F)cc4)CC3)cc12,inactive: 0%
23,CCC(C(=O)NCCc1ccccc1)n1nc(C)c2sc3ccccc3c2c1=O (stereo not given),inactive: 2.43%

# Source: PubChem BioAssay AID493208 (National Center for Advancing Translational Sciences (NCATS), 2011)
